Assay results: the supplement of paper PMC10126150
Values marked as one replicate rest on one cluster of the flow cell; about a third of the high ones do not repeat.
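Also: ATP exposure 15 min at 22 °C before imaging.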

Each sequence was assayed on ATP (assay: switch fluorescence ratio, 500 uM ATP over buffer (Cy3 cluster intensity, sum of 5 cycles each) (fold (ratio)); higher = stronger signal-on switching upon ATP binding; sequences stand for … in TCGTCGGCAGCGTCAGATGTGTATAAGAGACAGTTTTTTTTTTTTTTTTTTTTTTTTT…TC). Settings: aptamer strand: ATP DNA aptamer (quencher-CACCTGGGGGAGTATTGCGGAGGAAGG + anchor), 100 nM annealed; ATP concentration: 500 uM; one replicate.
Outline: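 Cy3-labelled switching-strand clusters on a modified Illumina MiSeq flow-cell were annealed to 100 nM quencher-labelled ATP aptamer and imaged first in selection buffer, then after 15 min with 500 uM ATP at 22 °C. NaOH stripping and re-annealing separated each of five buffer/ATP cycles, and clusters outside 100-1000 RFU were excluded. The fluorescence ratio sums target-cycle Cy3 intensity over buffer-cycle Cy3 intensity per cluster and averages it per switch-domain sequence.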
AAAAAATCGA gave a switch fluorescence ratio of 0.999.
Sequence AAAAAATCTT has a switch fluorescence ratio of 1.
For AAAAACCCGA, the switch fluorescence ratio was 1.04.
AAAAAGCCGG was tested, and the switch fluorescence ratio was 0.999.
AAAAAGCGCG was tested, and the switch fluorescence ratio was 0.975.
AAAAAGGAGT gave a switch fluorescence ratio of 0.974.
For AAAAAGTGTC, the switch fluorescence ratio was 0.968.
AAAAATTGGT gave a switch fluorescence ratio of 1.02.
AAAACACGCG showed a switch fluorescence ratio of 1.02.
AAAACATTCT gave a switch fluorescence ratio of 1.06.
Sequence AAAACGGATC has a switch fluorescence ratio of 0.997.
AAAACGGCCG gave a switch fluorescence ratio of 0.916.
In the case of AAAAGACTCA, the switch fluorescence ratio is reported as 1.08.
For AAAAGGGGT, the switch fluorescence ratio was 1.04.
AAAAGTACA gave a switch fluorescence ratio of 1.03.
AAAAGTGGCT showed a switch fluorescence ratio of 0.984.
For AAAAGTTGTG, the switch fluorescence ratio was 1.58.
For AAAATAGGAA, the switch fluorescence ratio was 0.959.
For AAAATAGTAT, the switch fluorescence ratio was 1.03.
For AAAATAGTGG, the switch fluorescence ratio was 1.
For AAAATCCATT, the switch fluorescence ratio was 0.975.
Sequence AAAATCGGAA has a switch fluorescence ratio of 1.02.
Sequence AAAATGCCAT has a switch fluorescence ratio of 1.01.
AAAATGGCTG was tested, and the switch fluorescence ratio was 1.04.
With AAAATGTTTG the switch fluorescence ratio was 1.02.
With AAAATTACGT the switch fluorescence ratio was 0.992.
For AAAATTGAGG, the switch fluorescence ratio was 1.
AAAATTGTTC showed a switch fluorescence ratio of 0.978.
AAAATTTCTT was tested, and the switch fluorescence ratio was 1.02.
AAACAACGGA was tested, and the switch fluorescence ratio was 1.03.
Sequence AAACAACGGC has a switch fluorescence ratio of 0.995.
Work on AAACAATTTG yielded a switch fluorescence ratio of 0.969.
Sequence AAACACACAG has a switch fluorescence ratio of 1.12.
AAACAGTGCT showed a switch fluorescence ratio of 0.979.
AAACATACG gave a switch fluorescence ratio of 1.31.
For AAACATGCAT, the switch fluorescence ratio was 1.03.
AAACATTGTA gave a switch fluorescence ratio of 1.
With AAACCCACTC the switch fluorescence ratio was 1.29.
Sequence AAACCGATC has a switch fluorescence ratio of 2.52.
With AAACCGATTA the switch fluorescence ratio was 1.06.
For AAACCGTCTT, the switch fluorescence ratio was 1.05.
Work on AAACCTATTG yielded a switch fluorescence ratio of 1.03.
With AAACCTTTTG the switch fluorescence ratio was 1.17.
AAACGATCAC showed a switch fluorescence ratio of 1.48.
AAACGCCGT was tested, and the switch fluorescence ratio was 1.03.
Sequence AAACGGTAT has a switch fluorescence ratio of 1.09.
Sequence AAACGGTATG has a switch fluorescence ratio of 1.
Sequence AAACGTGTGA has a switch fluorescence ratio of 1.02.
In the case of AAACGTTAAA, the switch fluorescence ratio is reported as 0.95.
For AAACGTTATG, the switch fluorescence ratio was 1.03.
AAACGTTATT showed a switch fluorescence ratio of 1.08.
AAACTACCGA gave a switch fluorescence ratio of 1.13.
AAACTCATG showed a switch fluorescence ratio of 0.966.
With AAACTCTCCG the switch fluorescence ratio was 1.49.
Sequence AAACTGATAC has a switch fluorescence ratio of 1.19.
AAACTGATGG gave a switch fluorescence ratio of 1.02.
For AAACTTGCAA, the switch fluorescence ratio was 1.27.
AAAGAAATAA was tested, and the switch fluorescence ratio was 0.984.
AAAGAAATCC showed a switch fluorescence ratio of 1.
With AAAGAAATCT the switch fluorescence ratio was 1.08.
Sequence AAAGAAGCCT has a switch fluorescence ratio of 1.16.
AAAGAAGTGA gave a switch fluorescence ratio of 0.968.
AAAGAATCAT gave a switch fluorescence ratio of 0.986.
AAAGACGAAA was tested, and the switch fluorescence ratio was 1.04.
Sequence AAAGACGATC has a switch fluorescence ratio of 1.13.
AAAGACGGAG was tested, and the switch fluorescence ratio was 1.07.
For AAAGACGGT, the switch fluorescence ratio was 0.988.
AAAGACTCTG was tested, and the switch fluorescence ratio was 1.05.
In the case of AAAGACTTT, the switch fluorescence ratio is reported as 1.02.
In the case of AAAGAGATAC, the switch fluorescence ratio is reported as 1.12.
In the case of AAAGAGGCTA, the switch fluorescence ratio is reported as 1.02.
AAAGATAGAG was tested, and the switch fluorescence ratio was 1.03.
AAAGATCGGT showed a switch fluorescence ratio of 1.01.
Work on AAAGATTCGT yielded a switch fluorescence ratio of 1.02.
With AAAGCAAGCC the switch fluorescence ratio was 2.22.
AAAGCATCCT was tested, and the switch fluorescence ratio was 1.14.
With AAAGCATCTG the switch fluorescence ratio was 0.995.
Work on AAAGCCTATC yielded a switch fluorescence ratio of 1.04.
AAAGCCTCGG gave a switch fluorescence ratio of 1.
In the case of AAAGCCTTTC, the switch fluorescence ratio is reported as 1.42.
Work on AAAGCGATGT yielded a switch fluorescence ratio of 0.984.
Sequence AAAGCTAAGT has a switch fluorescence ratio of 0.991.
Work on AAAGCTTAAA yielded a switch fluorescence ratio of 1.01.
Sequence AAAGCTTCTG has a switch fluorescence ratio of 1.04.
Sequence AAAGCTTGTG has a switch fluorescence ratio of 1.02.
In the case of AAAGGATCAT, the switch fluorescence ratio is reported as 1.01.
With AAAGGATTGT the switch fluorescence ratio was 0.94.
In the case of AAAGGGTTAT, the switch fluorescence ratio is reported as 0.956.
Sequence AAAGGTGCAG has a switch fluorescence ratio of 1.02.
In the case of AAAGGTGGCT, the switch fluorescence ratio is reported as 1.06.
AAAGTAGGCA gave a switch fluorescence ratio of 0.985.
With AAAGTAT the switch fluorescence ratio was 1.
For AAAGTCGTAG, the switch fluorescence ratio was 0.951.
For AAAGTCTAGG, the switch fluorescence ratio was 0.989.
For AAAGTGCGGC, the switch fluorescence ratio was 0.971.
In the case of AAAGTTAAGA, the switch fluorescence ratio is reported as 0.993.
Sequence AAAGTTAGCC has a switch fluorescence ratio of 1.01.
Work on AAAGTTGAAC yielded a switch fluorescence ratio of 0.953.
For AAAGTTTATT, the switch fluorescence ratio was 1.03.
For AAATAACTTG, the switch fluorescence ratio was 0.99.
In the case of AAATAAGTTG, the switch fluorescence ratio is reported as 1.06.
With AAATACAGAT the switch fluorescence ratio was 1.03.
AAATACCTAA was tested, and the switch fluorescence ratio was 1.05.
AAATACGAAC was tested, and the switch fluorescence ratio was 1.46.
AAATAGACCC showed a switch fluorescence ratio of 1.01.
Work on AAATAGTATT yielded a switch fluorescence ratio of 1.01.
With AAATAGTTAC the switch fluorescence ratio was 1.09.
AAATCAATGC was tested, and the switch fluorescence ratio was 1.46.
In the case of AAATCACCCA, the switch fluorescence ratio is reported as 1.03.
With AAATCAGTTG the switch fluorescence ratio was 1.01.
Sequence AAATCATTC has a switch fluorescence ratio of 0.998.
AAATCCAAAT was tested, and the switch fluorescence ratio was 1.02.
AAATCCAAG showed a switch fluorescence ratio of 1.01.
Work on AAATCCATAG yielded a switch fluorescence ratio of 1.
For AAATCCTTGG, the switch fluorescence ratio was 0.994.
AAATCTAAG gave a switch fluorescence ratio of 0.989.
Work on AAATCTGATT yielded a switch fluorescence ratio of 1.03.
AAATGATGCT gave a switch fluorescence ratio of 1.03.
AAATGATTCA was tested, and the switch fluorescence ratio was 1.01.
AAATGCAAC was tested, and the switch fluorescence ratio was 1.1.
Sequence AAATGCGAC has a switch fluorescence ratio of 1.09.
AAATGGGATC showed a switch fluorescence ratio of 1.01.
AAATGTAGCA gave a switch fluorescence ratio of 1.01.
In the case of AAATGTTGTT, the switch fluorescence ratio is reported as 1.03.
For AAATTACGTA, the switch fluorescence ratio was 1.18.
AAATTAGTC showed a switch fluorescence ratio of 0.939.
With AAATTATTAT the switch fluorescence ratio was 0.991.
AAATTCAACG showed a switch fluorescence ratio of 1.02.
AAATTCCATA gave a switch fluorescence ratio of 0.994.
Work on AAATTTAGCC yielded a switch fluorescence ratio of 1.04.
Work on AAATTTCTA yielded a switch fluorescence ratio of 0.993.
For AAATTTTGCA, the switch fluorescence ratio was 0.997.
AACAAACAAA showed a switch fluorescence ratio of 1.06.
AACAAACACT showed a switch fluorescence ratio of 1.13.
Sequence AACAAATCCT has a switch fluorescence ratio of 1.2.
Work on AACAATGGTG yielded a switch fluorescence ratio of 1.03.
AACAATTTCC was tested, and the switch fluorescence ratio was 1.16.
In the case of AACACATAGA, the switch fluorescence ratio is reported as 1.04.
In the case of AACACATTTC, the switch fluorescence ratio is reported as 1.06.
Work on AACACGATAC yielded a switch fluorescence ratio of 1.95.
AACACGCAT gave a switch fluorescence ratio of 1.32.
For AACACGGATT, the switch fluorescence ratio was 1.02.
Sequence AACACGGGTC has a switch fluorescence ratio of 1.09.
For AACACGTCCC, the switch fluorescence ratio was 1.07.
AACAGACAGG gave a switch fluorescence ratio of 1.05.
AACAGGTAAG showed a switch fluorescence ratio of 1.43.
AACAGTAAGA gave a switch fluorescence ratio of 1.05.
Work on AACAGTGCAA yielded a switch fluorescence ratio of 0.978.
AACATACGCA was tested, and the switch fluorescence ratio was 1.29.
Work on AACATAGAGA yielded a switch fluorescence ratio of 0.963.
Sequence AACATCGTCA has a switch fluorescence ratio of 0.971.
Work on AACATCGTTG yielded a switch fluorescence ratio of 0.972.
Sequence AACATCTATT has a switch fluorescence ratio of 1.01.
AACATGCTGA was tested, and the switch fluorescence ratio was 1.
With AACATTACCC the switch fluorescence ratio was 1.13.
Sequence AACATTACGT has a switch fluorescence ratio of 1.36.
In the case of AACATTAGTT, the switch fluorescence ratio is reported as 1.01.
AACATTCCGA was tested, and the switch fluorescence ratio was 3.35.
AACATTCTTT was tested, and the switch fluorescence ratio was 1.08.
In the case of AACATTGTTG, the switch fluorescence ratio is reported as 1.
In the case of AACCAATGGA, the switch fluorescence ratio is reported as 0.979.
AACCAGTCTC showed a switch fluorescence ratio of 1.
AACCATTACA showed a switch fluorescence ratio of 1.09.
In the case of AACCCGATTT, the switch fluorescence ratio is reported as 1.02.
In the case of AACCCTGCAG, the switch fluorescence ratio is reported as 1.09.
Work on AACCCTTCGG yielded a switch fluorescence ratio of 0.95.
With AACCGAACCA the switch fluorescence ratio was 1.2.
AACCGAATTG showed a switch fluorescence ratio of 0.999.
AACCGAGGGC showed a switch fluorescence ratio of 1.03.
Work on AACCGGGGTC yielded a switch fluorescence ratio of 1.1.
AACCGTCCGA was tested, and the switch fluorescence ratio was 2.54.
AACCTAATTG showed a switch fluorescence ratio of 0.98.
AACCTAGGGG gave a switch fluorescence ratio of 1.06.
Sequence AACCTCAGAA has a switch fluorescence ratio of 1.03.
Sequence AACCTGTGGC has a switch fluorescence ratio of 0.981.
Work on AACCTTAAAT yielded a switch fluorescence ratio of 1.03.
AACCTTAGGT was tested, and the switch fluorescence ratio was 1.02.
AACGAAGGAA showed a switch fluorescence ratio of 1.06.
AACGACCAGC was tested, and the switch fluorescence ratio was 1.14.
Sequence AACGAGAATA has a switch fluorescence ratio of 0.986.
AACGATAAGC gave a switch fluorescence ratio of 1.06.
Sequence AACGATACAG has a switch fluorescence ratio of 1.19.
Work on AACGCCAGT yielded a switch fluorescence ratio of 1.34.
With AACGCCCATG the switch fluorescence ratio was 0.993.
AACGCCCTTC showed a switch fluorescence ratio of 1.61.
In the case of AACGCCTATC, the switch fluorescence ratio is reported as 1.06.
Sequence AACGCCTGCC has a switch fluorescence ratio of 1.59.
Sequence AACGCGAAAT has a switch fluorescence ratio of 1.11.
With AACGCGCCGT the switch fluorescence ratio was 1.06.
AACGCTATT was tested, and the switch fluorescence ratio was 1.17.
For AACGCTGACG, the switch fluorescence ratio was 1.05.
In the case of AACGGAGATT, the switch fluorescence ratio is reported as 1.01.
With AACGGCCTTG the switch fluorescence ratio was 0.989.
With AACGGCGTCA the switch fluorescence ratio was 1.
Sequence AACGGCTGGG has a switch fluorescence ratio of 0.997.
In the case of AACGGGAAGG, the switch fluorescence ratio is reported as 1.04.
For AACGGGAGTA, the switch fluorescence ratio was 0.999.
For AACGGGGCC, the switch fluorescence ratio was 1.04.
AACGGGGCGT gave a switch fluorescence ratio of 0.996.
AACGGGGGGC was tested, and the switch fluorescence ratio was 1.06.
In the case of AACGGGTATC, the switch fluorescence ratio is reported as 0.977.
